Drawing on patent publication US7582627B2, “3-aminoquinazolin-2,4-dione antibacterial agents” (Warner-Lambert Company, priority 2000, dated 2009), this text covers melting point for one compound.

SMILES strings stand for the structures. Read-outs that look alike come from different tables or passages of the source. Entries with a single value are a further part of the results.

As for `COc1c(N2CC[C@H]([C@@H](C)N)C2)c(F)cc2c(=O)n(N)c(=O)n(C3CC3)c12.Cl` [Compound 36], the melting point is 175 to 179 °C (prepared by General Method A) and 215 to 217 °C (prepared by General Method E).
